In ChEMBL document CHEMBL1250441, “Antitumor agents 273. Design and synthesis of N-alkyl-thiocolchicinoids as potential antitumor agents” (Bioorg Med Chem Lett, 2010):
≈ marks a conversion by molar mass, not a printed value.

Experiments:
A549 = test: Cytotoxicity against human A549 cells after 2 days; type: functional; conditions: A549, 48 h, read-out: ED50 (the source's name)
[1] = Inhibition of tubulin assembly
SK-BR-3 = test: Cytotoxicity against human SKBR3 cells after 2 days; type: functional; conditions: SK-BR-3, 48 h, read-out: ED50 (the source's name)
[2] = Cytotoxicity against human KBVIN cells expressing p-glycoprotein after 2 days; type: functional; conditions: 48 h, read-out: ED50 (the source's name)
HCT-8 = test: Cytotoxicity against human HCT8 cells after 2 days; type: functional; conditions: HCT-8, 48 h, read-out: ED50 (the source's name)
DU-145 = test: Cytotoxicity against human DU145 cells after 2 days; type: functional; conditions: DU-145, 48 h, read-out: ED50 (the source's name)

Compound: COc1cc2c(c(OC)c1OC)-c1ccc(SC)c(=O)cc1[C@@H](N)CC2.O=C(O)CCC(=O)O
- EC50 (A549): 0.0256 µg/mL
- IC50 [1]: 880 nM
- EC50 (SK-BR-3): 0.0115 µg/mL
- EC50 [2]: 0.033 µg/mL
- EC50 (HCT-8): 0.0291 µg/mL
- EC50 (DU-145): 0.0185 µg/mL

Compound: CN[C@H]1CCc2cc(OC)c(OC)c(OC)c2-c2ccc(SC)c(=O)cc21
- EC50 (A549): 0.0476 µg/mL (≈ 0.123 µM)
- IC50 [1]: 2500 nM
- EC50 (SK-BR-3): 0.0179 µg/mL (≈ 0.0462 µM)
- EC50 [2]: 0.0413 µg/mL (≈ 0.107 µM)
- EC50 (HCT-8): 0.038 µg/mL (≈ 0.0981 µM)
- EC50 (DU-145): 0.018 µg/mL (≈ 0.0465 µM)

Compound: COc1cc2c(c(OC)c1OC)-c1ccc(SC)c(=O)cc1[C@@H](N)CC2
- EC50 (A549): 0.0077 µg/mL (≈ 0.0206 µM)
- IC50 [1]: 910 nM
- EC50 (SK-BR-3): 0.0016 µg/mL (≈ 0.00428 µM)
- EC50 [2]: 0.0139 µg/mL (≈ 0.0372 µM)
- EC50 (HCT-8): 0.005 µg/mL (≈ 0.0134 µM)
